Assay results from PubChem BioAssay AID1745845 (National Center for Advancing Translational Sciences (NCATS), 2022).
Screen size: about 360,000 compounds; about 2,600 (0.72%) were called active. The inconclusive results got no clear call from the source; some entries with a clear call stand among them for comparison. Calls come from the whole dose curve; as a rule, active = well fitted inhibition curve with a large enough effect; inconclusive = small, poorly fitted or top-dose-only effect; inactive = no such curve, though single readings can be large or run the other way. A potency beside an inconclusive call is a rough fit, not a confirmed value.
% is set by controls: 0 for no effect and ±100 for the full control effect; potency is the fitted concentration of half-maximal effect; tags give direction and shape of the fitted curve.

Assay: Primary qHTS for Inhibitors of ATXN expression; note: nearly all actives have a fitted effect of over 55% in size
Details: HEK-293 ATXN2-luciferase reporter, luminescence, 24 h; activity change, negative = inhibition: at 57 µM (top of the series)
Outline: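 qHTS (up to 57 uM final) was run with 24 h compound exposure of reporter cells at 37 °C. Each well was multiplexed: SteadyGlo luminescence measured ATXN2-luciferase expression after a fluorogenic Gly-Phe-AFC viability readout (25 uM final).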
In the case of `Cc1cc(C)c(NC(=O)c2cc(CN3CCOCC3)on2)c(C)c1`, the Potency is reported as “inactive”. In the case of `COc1ccc2cc(S(=O)(=O)c3ccccc3F)c(=O)oc2c1`, the Potency is reported as inconclusive: 39.8 µM [inhibitor, single point]. For `Cn1nc(C(F)(F)F)c(C(=O)Nc2cccc(C(F)(F)F)c2)c1SCc1ccc(Cl)cc1`, the Potency was inconclusive: 35.5 µM [inhibitor, single point]. With `O=C(CSc1ccc2ccccc2c1)Nc1nc2ccccc2[nH]1` the Potency was inconclusive: 28.2 µM [inhibitor, partial curve, poor fit]. For `Cc1cccn2c(=O)c(/C=C(\C#N)C(=O)NCc3ccco3)c(N3CCCC(C)C3)nc12` (stereo not given), the Potency was “inactive”. For `CCO[C@@H]1OC(C(=O)N2CCN(Cc3ccccc3)CC2)=C[C@H](c2ccc(Br)cc2)[C@H]1CCCO`, the Potency was “inactive”. For `O=C(Nc1nnc(-c2cccs2)o1)c1cccc(F)c1`, the Potency was inconclusive: 25.1 µM [inhibitor, single point]. In the case of `COCCCn1c(=O)c2sccc2n(Cc2ccc(C)cc2)c1=O`, the Potency is reported as “inactive”. With `NS(=O)(=O)c1ccc(CCNc2ncnc3sccc23)cc1` the Potency was inconclusive: 3.55 µM [inhibitor, partial curve, poor fit]. In the case of `Cc1cccc(OCC(=O)Nc2ccc(C(=O)OCc3cc(=O)n4nc(C5CC5)sc4n3)cc2)c1`, the Potency is reported as “inactive”. With `O=C(CSc1ncccn1)N1CCN(C(c2ccccc2)c2ccccc2)CC1` the Potency was “inactive”. In the case of `O=C1OC(c2ccccc2)(c2ccc3cc(O)ccc3c2)c2ccccc21` (stereo not given), the Potency is reported as inconclusive: 35.5 µM [inhibitor, partial curve, poor fit]. With `CCc1cc(-c2cnnn2Cc2ccccc2)ccc1-c1cn(CC(C)C)nn1` the Potency was inconclusive: 25.1 µM [inhibitor, single point]. With `CC(=O)Nc1sc(C)c(C)c1C(=O)OCC(=O)Nc1cccc(C)c1` the Potency was inconclusive: 17.8 µM [inhibitor, partial curve]. With `CCN(CC)CCNC(=O)C1CCCN(c2nnc(C)c3c(C)n(-c4ccc(Cl)cc4)nc23)C1` (stereo not given) the Potency was inconclusive: 11.2 µM [inhibitor, partial curve, poor fit]. In the case of `O=C(NCC1CCCO1)c1cccc(Oc2ccc([N+](=O)[O-])cc2Cl)c1` (stereo not given), the Potency is reported as inconclusive: 15.8 µM [inhibitor, partial curve, poor fit]. With `O=C(NCCCCc1ccccc1)c1ccccc1Cl` the Potency was “inactive”. For `O=C(COC(=O)c1cccs1)Nc1cccc(S(=O)(=O)N2CCOCC2)c1`, the Potency was “inactive”. With `CCN(Cc1nc2ccccc2c(=O)[nH]1)C(=O)c1cc2c(s1)CCCCC2` the Potency was “inactive”. For `COc1cccc2oc3ccc(C#CC4(N)CCCCC4)cc3c(=O)c12`, the Potency was inconclusive: 39.8 µM [inhibitor, single point]. With `O=C(/C=C/c1ccco1)Nc1scc(-c2ccccc2)c1C(=O)O` the Potency was inconclusive: 15.8 µM [inhibitor, partial curve, poor fit]. In the case of `COc1cccc(NC(=O)CSc2nc(C3CC3)nc3ccccc23)c1`, the Potency is reported as “inactive”. With `Cc1ccc(N(CC(=O)NCCc2ccc(F)cc2)S(=O)(=O)c2ccc(Cl)c([N+](=O)[O-])c2)c(C)c1` the Potency was inconclusive: 35.5 µM [inhibitor, single point]. For `COC(=O)c1cc(NC(=O)Nc2cccc(Cl)c2)ccc1Cl`, the Potency was inconclusive: 39.8 µM [inhibitor, single point]. In the case of `CC(=O)COC(=O)C1=NN(c2ccccc2)C(=O)CC1`, the Potency is reported as “inactive”. For `O=S(=O)(NCCc1csc(-c2ccc(F)cc2)n1)c1ccc(F)cc1F`, the Potency was inconclusive: 15.8 µM [inhibitor, partial curve, poor fit]. With `CC(C)CC(=NNC(=O)c1ccncc1)c1cc(Cl)ccc1O` the Potency was active: 2.82 µM. With `Cc1ccc(C2c3cccn3CCN2S(=O)(=O)c2ccc([N+](=O)[O-])cc2)cc1` (stereo not given) the Potency was “inactive”. With `COc1ccc(S(=O)(=O)Nc2cc(C(C)C)c(O)cc2C)cc1` the Potency was “inactive”. In the case of `CCOc1cc(N2C(=O)CC3CS(=O)(=O)CC32)c(OCC)cc1NC(=O)c1ccccc1` (stereo not given), the Potency is reported as “inactive”. In the case of `CN[C@H]1C[C@H]2c3[nH]c4ccc(-c5cccc(C)c5)cc4c3CCN2C[C@H]1[C@H](C)O`, the Potency is reported as inconclusive: 28.2 µM [inhibitor, single point]. In the case of `Cc1oc(-c2ccccc2F)nc1Cn1c(SCc2ccccc2F)nc2ccncc21`, the Potency is reported as inconclusive: 39.8 µM [inhibitor, single point]. For `COCCOc1nc(-c2ccc(Cl)c(Cl)c2)n(-c2ccc(NC(=O)CCl)cc2)n1`, the Potency was inconclusive: 21.7 µM [inhibitor, partial curve]. For `Cn1ncc2c(O/N=C(\N)c3ccc(C(C)(C)C)cc3)ncnc21`, the Potency was inconclusive: 31.6 µM [inhibitor, single point]. In the case of `Cc1cc(Nc2cc(NC(=O)c3c(Cl)cccc3Cl)ccn2)nc(N)n1`, the Potency is reported as active: 7.69 µM. For `Cc1ccc(NC(=O)C(OC(=O)c2ccc(NC(N)=O)cc2)c2ccccc2)cc1Cl` (stereo not given), the Potency was “inactive”. With `Cc1cccc(N2CCN(C(=O)c3ccccc3NC(=O)C3CC=CCC3C(=O)O)CC2)c1` (stereo not given) the Potency was “inactive”. For `CCOC(=O)CSc1nnc(NC(=O)c2ccc3c(c2)OCO3)s1`, the Potency was “inactive”. In the case of `C/C(=N\NC(=O)c1ccc(NS(=O)(=O)c2cccs2)cc1)c1cccs1`, the Potency is reported as “inactive”. For `CC1=[N+](C)c2c(ccc3cccnc23)C1(C)C`, the Potency was active: 2.99 µM. In the case of `O=C(Nc1ccccc1N1CCCCC1)c1cc(S(=O)(=O)N2CCOCC2)ccc1F`, the Potency is reported as “inactive”. With `Clc1ccc2[nH]cc(-c3nnnn3-c3ccc4ccccc4c3)c2c1` the Potency was inconclusive: 31.6 µM [inhibitor, single point]. With `COc1ccccc1CNC(=O)COc1cc2c(c3oc(=O)cc(C)c13)CCC(C)(C)O2` the Potency was inconclusive: 39.8 µM [inhibitor, single point]. In the case of `COc1ccc(CNC(=O)c2cc3c(=O)n(Cc4cccs4)ccc3nc2C)cc1`, the Potency is reported as inconclusive: 2.24 µM [inhibitor, partial curve, poor fit]. With `Cc1ccc(-c2nc(-c3ccccn3)no2)cc1Cl` the Potency was active: 10 µM. For `CCOc1ccc(NS(=O)(=O)c2ccc(C(=O)NNC(=O)c3ccccc3O)cc2)cc1`, the Potency was inconclusive: 20 µM [inhibitor, partial curve, poor fit]. In the case of `COC(=O)[C@]12CCCCC=C1N(Cc1ccco1)C(=O)[C@H](CC(=O)NCc1cccs1)C2`, the Potency is reported as “inactive”. For `CN(C)CCN(C)C1CN(C2CCCC2)S(=O)(=O)C1` (stereo not given), the Potency was “inactive”. In the case of `O=C(CN1C(=O)NC2(CCCC2)C1=O)NNC(=O)c1ccc(F)cc1`, the Potency is reported as “inactive”. For `COc1ccc(CNC(=O)c2c(N)n(CCCN3CCOCC3)c3nc4ccccc4nc23)cc1`, the Potency was inconclusive: 15.8 µM [inhibitor, partial curve, poor fit]. In the case of `O=C(CSc1nc2c(c(=O)[nH]1)CCCC2)Nc1cccc(O)c1`, the Potency is reported as “inactive”. With `NS(=O)(=O)c1cc(C(=O)OCC(=O)c2ccccc2)c(Cl)cc1Cl` the Potency was inconclusive: 0.0267 µM [inhibitor, partial curve, poor fit]. With `Cc1cc(OCCn2c(C3CC(=O)N(Cc4ccc(F)cc4)C3)nc3ccccc32)ccc1Cl` (stereo not given) the Potency was inconclusive: 22.4 µM [inhibitor, single point]. In the case of `Cc1ccc(C(=O)NNC(=O)C2CCN(Cc3ccc(Cl)c(Cl)c3)CC2)cc1`, the Potency is reported as inconclusive: 15.8 µM [inhibitor, partial curve, poor fit]. With `Cc1ccc(Cl)cc1N1CCN(C(=O)C2CCC(=O)N(C3CCCCCC3)C2)CC1` (stereo not given) the Potency was inconclusive: 1.58 µM [inhibitor, partial curve, poor fit]. In the case of `S=C(NCCC(c1ccccc1)c1ccccc1)Nc1ccc(Cl)cc1`, the Potency is reported as inconclusive: 20 µM [inhibitor, single point]. For `Cc1ccc(C)c(N2CCN(CCCNC(=O)Cn3c(-c4cccs4)cc4ccccc43)CC2)c1`, the Potency was active: 25.1 µM. In the case of `COCCCNC(=O)/C(C#N)=c1\s/c(=C\c2ccccc2OC(F)F)c(=O)n1CCCOC`, the Potency is reported as inconclusive: 0.708 µM [inhibitor, partial curve, poor fit]. For `O=C1c2ccccc2C(=O)c2[nH]c(=O)[nH]c21`, the activity change, negative = inhibition was inconclusive: -93.9% [inhibitor]. With `CCOCCCNC(=O)c1cc(Sc2ccc(F)cc2)nc2ccccc12` the Potency was “inactive”. In the case of `CCn1c(Cl)c(C=O)s/c1=N\S(=O)(=O)c1ccccc1`, the Potency is reported as active: 12.6 µM. For `COc1ccc(-c2csc3ncnc(Nc4ccc(OC)c(OC)c4)c23)cc1`, the Potency was inconclusive: 6.31 µM [inhibitor, partial curve, poor fit]. For `CC(C)NC(=O)NNC(=O)Cn1nnc(-c2cccc(Cl)c2Cl)n1`, the Potency was “inactive”. In the case of `CCOC(=O)c1sc2nc(C)nc(NCc3ccccc3OC)c2c1C`, the Potency is reported as inconclusive: 17.8 µM [inhibitor, partial curve, poor fit]. In the case of `CCOc1ccc(OCC)c(NC(=O)CN(c2ccc(C)cc2)S(=O)(=O)c2c(C)n[nH]c2C)c1`, the Potency is reported as inconclusive: 39.8 µM [inhibitor, single point]. With `CC1(C)Cc2c(sc(NC(=O)COc3cccc4ccccc34)c2C#N)C(C)(C)N1` the Potency was inconclusive: 17.8 µM [inhibitor, single point]. For `Cc1ccc(-n2c(O)c(/C=N/NC(=O)C3COc4ccccc4O3)c3ccccc3c2=O)cc1` (stereo not given), the Potency was inconclusive: 31.6 µM [inhibitor, partial curve, poor fit]. For `CN(C)CCNc1nc(Oc2cccc(F)c2)c2sccc2n1`, the Potency was “inactive”. In the case of `CSc1ccc(C2NC(=O)CCC2[N+](=O)[O-])cc1` (stereo not given), the Potency is reported as “inactive”. For `Cc1ccc2ccccc2c1NC(=O)Cn1nnc(-c2cccnc2)n1`, the Potency was inconclusive: 0.947 µM [inhibitor, full curve, poor fit].
